Test results from PubChem BioAssay AID504333 (National Center for Advancing Translational Sciences (NCATS), 2011).
About 16,000 (4.4%) of roughly 360,000 compounds were called active. Inconclusive means that the source gave no clear call. Such entries were picked first, then a sample of the others. Calls follow the shape of the dose curve; as a rule, active = well fitted inhibition curve with a large enough effect; inconclusive = small, poorly fitted or top-dose-only effect; inactive = no such curve, though single readings can be large or run the other way. Potencies of inconclusive entries are doubtful fits and often do not repeat.

Biological target: Bromodomain adjacent to zinc finger domain protein 2B (Homo sapiens) (UniProt Q9UIF8)
Assay: qHTS Assay for Inhibitors of BAZ2B; also: nearly all actives have a fitted effect of over 60% in size
Conditions: AlphaScreen BAZ2B-H3K14Ac peptide displacement; activity change, negative = inhibition: at 114 µM (top of the series) unless noted
In short: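 AlphaScreen luminescence quantifies BAZ2B engagement of H3K14Ac peptide; the protein and biotinylated peptide are both at 50 nM final, buffer PBS pH 7.4 with 0.01% Tween-20, all steps at room temperature.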
% is scaled to controls: 0 for no effect and ±100 for the full control effect; potency is read from the fitted curve at half-maximal effect; tags tell the direction and shape of the fitted curve.

Sequence of UniProt Q9UIF8 (Q9UIF8 whole entry, looked up, the tested form may be a part): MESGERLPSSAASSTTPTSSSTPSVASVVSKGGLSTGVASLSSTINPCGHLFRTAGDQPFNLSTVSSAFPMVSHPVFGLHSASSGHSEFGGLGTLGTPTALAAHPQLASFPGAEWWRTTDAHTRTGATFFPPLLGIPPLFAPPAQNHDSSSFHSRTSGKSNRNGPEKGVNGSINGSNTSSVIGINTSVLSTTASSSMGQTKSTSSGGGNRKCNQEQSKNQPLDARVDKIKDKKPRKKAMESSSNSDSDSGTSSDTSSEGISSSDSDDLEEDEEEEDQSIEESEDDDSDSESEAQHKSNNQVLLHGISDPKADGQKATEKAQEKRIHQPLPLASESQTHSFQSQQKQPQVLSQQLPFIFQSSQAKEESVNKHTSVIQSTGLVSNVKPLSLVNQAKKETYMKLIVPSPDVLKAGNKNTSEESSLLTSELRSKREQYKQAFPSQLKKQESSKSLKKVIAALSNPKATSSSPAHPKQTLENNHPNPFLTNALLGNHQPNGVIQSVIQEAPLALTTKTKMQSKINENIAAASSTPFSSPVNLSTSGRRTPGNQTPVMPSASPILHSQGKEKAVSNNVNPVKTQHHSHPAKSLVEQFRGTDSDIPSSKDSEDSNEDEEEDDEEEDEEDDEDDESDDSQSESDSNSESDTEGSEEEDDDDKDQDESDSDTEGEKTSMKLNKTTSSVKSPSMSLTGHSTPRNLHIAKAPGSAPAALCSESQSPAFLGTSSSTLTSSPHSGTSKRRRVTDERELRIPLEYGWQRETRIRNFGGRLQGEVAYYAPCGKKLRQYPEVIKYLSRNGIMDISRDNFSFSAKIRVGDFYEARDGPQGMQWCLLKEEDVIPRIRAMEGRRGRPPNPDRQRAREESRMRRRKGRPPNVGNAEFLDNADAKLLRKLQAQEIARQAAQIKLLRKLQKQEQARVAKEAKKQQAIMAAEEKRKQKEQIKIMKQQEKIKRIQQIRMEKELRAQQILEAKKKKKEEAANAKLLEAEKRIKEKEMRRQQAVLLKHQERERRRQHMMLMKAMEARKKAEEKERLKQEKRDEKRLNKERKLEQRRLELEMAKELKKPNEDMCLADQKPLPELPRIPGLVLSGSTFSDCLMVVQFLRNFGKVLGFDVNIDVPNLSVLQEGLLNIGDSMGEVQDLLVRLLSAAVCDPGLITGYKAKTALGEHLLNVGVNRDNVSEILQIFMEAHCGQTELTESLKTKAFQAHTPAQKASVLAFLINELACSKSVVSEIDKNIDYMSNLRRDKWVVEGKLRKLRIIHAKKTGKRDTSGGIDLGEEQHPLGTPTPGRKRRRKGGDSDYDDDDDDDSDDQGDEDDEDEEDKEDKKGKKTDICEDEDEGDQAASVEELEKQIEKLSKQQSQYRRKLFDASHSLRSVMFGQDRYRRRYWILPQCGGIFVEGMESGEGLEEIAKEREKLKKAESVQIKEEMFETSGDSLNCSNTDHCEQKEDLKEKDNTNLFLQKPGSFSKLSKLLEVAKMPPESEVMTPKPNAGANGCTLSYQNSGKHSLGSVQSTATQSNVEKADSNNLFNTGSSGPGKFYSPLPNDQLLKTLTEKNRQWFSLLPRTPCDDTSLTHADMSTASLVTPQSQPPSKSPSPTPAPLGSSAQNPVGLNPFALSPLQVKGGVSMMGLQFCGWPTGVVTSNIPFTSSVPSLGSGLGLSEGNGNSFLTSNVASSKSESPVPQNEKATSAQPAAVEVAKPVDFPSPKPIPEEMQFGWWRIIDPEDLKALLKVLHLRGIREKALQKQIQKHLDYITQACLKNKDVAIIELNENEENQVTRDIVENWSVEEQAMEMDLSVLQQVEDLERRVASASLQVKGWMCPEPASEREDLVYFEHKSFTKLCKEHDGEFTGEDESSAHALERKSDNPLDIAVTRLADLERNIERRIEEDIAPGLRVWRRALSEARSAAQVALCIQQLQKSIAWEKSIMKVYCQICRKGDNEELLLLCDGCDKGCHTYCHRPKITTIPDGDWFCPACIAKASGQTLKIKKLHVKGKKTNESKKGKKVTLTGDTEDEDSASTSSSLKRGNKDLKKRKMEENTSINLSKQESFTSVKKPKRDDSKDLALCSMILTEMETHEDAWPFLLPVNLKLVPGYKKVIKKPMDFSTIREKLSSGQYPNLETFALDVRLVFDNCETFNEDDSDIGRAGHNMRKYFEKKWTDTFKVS

SMILES | Potency | activity change, negative = inhibition
O=C1/C(=C\c2ccc(O)c(O)c2)N=C2CCCCCN12 | inconclusive: 56.2 µM [inhibitor, partial curve] | –
CN(C)c1ccc(NS(=O)(=O)c2ccc(Cl)cc2)cc1 | active: 44.7 µM | –
COc1cccc(Nc2nc(-c3sc(NC(=O)c4ccccc4)nc3C)cs2)c1 | inconclusive: 35.5 µM [inhibitor, partial curve] | –
CCOC(=O)C1CCN(C(c2cc3ccc(C)cc3[nH]c2=O)c2nnnn2C2CCCCC2)CC1 (stereo not given) | inactive | –
Cn1ncc2cc(NC(=S)NC(=O)c3ccccc3)ccc21 | inconclusive: 79.4 µM [inhibitor, single point] | –
Cc1ccc(NCc2nnc(SCC(=O)Nc3ccccc3)n2CC2CCCO2)c(C)c1 (stereo not given) | inconclusive: 89.1 µM [inhibitor, single point] | –
Cc1ccc(NS(=O)(=O)c2cc(C(=O)NCc3cccnc3)ccc2C)cc1 | inactive | –
CCOc1ccccc1-c1nc(-c2ccncc2)no1 | inconclusive: 89.1 µM [inhibitor, single point] | –
COc1cc(CN2CCN(Cc3ccccc3C(F)(F)F)CC2)cc(OC)c1OC | active: 20 µM | –
Oc1ccccc1/C=N/Nc1nccnc1Cl | active: 35.5 µM | –
CC1CCN(CCCCOc2ccccc2Br)CC1 | inconclusive: 79.4 µM [inhibitor, partial curve] | –
N#CC(c1ccccc1)c1ccc2c(C(F)(F)F)cc(C(F)(F)F)nc2n1 (stereo not given) | active: 10 µM | –
COc1ccccc1NS(=O)(=O)c1cccc(-n2c(O)c(C=Nc3ccccc3C(=O)O)c3ccccc3c2=O)c1 | active: 39.8 µM | –
NS(=O)(=O)c1ccc(CCNC(=O)CNCCc2ccccc2)cc1 | active: 50.1 µM | –
CC(=O)N1CCN(S(=O)(=O)c2cccc(C(=O)Nc3ccc4c(c3)OCO4)c2)CC1 | inconclusive: 39.8 µM [inhibitor, partial curve] | –
CCc1ccc2nc(N(CCCN(C)C)C(=O)c3ccc(S(=O)(=O)N4CCc5ccccc5C4)cc3)sc2c1 | inconclusive: 63.1 µM [inhibitor, partial curve, poor fit] | –
Cc1ccc(S(=O)(=O)Oc2ccc(/C=C3\C(=N)N4N=C(S(C)(=O)=O)SC4=NC3=O)cc2)cc1 | active: 50.1 µM | –
CCc1ccc(C(C)NC(=O)c2ncn[nH]2)cc1 (stereo not given) | active: 50.1 µM | –
COc1ccccc1/C=N/N1CCN(c2ccc(Cl)cc2)CC1 | active: 50.1 µM | –
COc1ccc(OCCNc2cc(N3CCOCC3)ccc2[N+](=O)[O-])cc1 | inconclusive: 31.6 µM [inhibitor, partial curve] | –
Cc1cc(C)n2cc(CSc3ncccc3C(=O)O)nc2n1 | inconclusive: 89.1 µM [inhibitor, single point] | –
Cc1cccc(-c2nc(CN3CCCC(C(=O)NCCc4ccc(Cl)cc4)C3)c(C)o2)c1 (stereo not given) | active: 56.2 µM | –
CCOc1ccc(-n2c(C)c(C(C)=O)c3cc(OCC(N)=O)ccc32)cc1 | inconclusive: 89.1 µM [inhibitor, partial curve] | –
COc1cc(N2CCCC2)c(OC)cc1/C=C(/C#N)c1ccc(F)cc1 | active: 15.8 µM | –
CCOC(=O)C1CCCN(Cc2ccc(OCc3ccccc3)c(OC)c2)C1 (stereo not given) | active: 50.1 µM | –

SMILES | Potency | activity change, negative = inhibition
CCOC(=O)C(Cc1c[nH]c2ccccc12)NC(=O)c1ccccc1Br (stereo not given) | inactive | –
Cc1ccccc1CCNC(=O)c1ccc2c(c1)nc1n2CCCCC1 | inconclusive: 39.8 µM [inhibitor, single point] | –
OCCN1CCN(C2Cc3cc(Cl)ccc3Sc3ccc(Cl)cc32)CC1 (stereo not given) (tested in a mixture with another compound) | inconclusive: 89.1 µM [inhibitor, single point] | –
Cc1sc2nc3c(SC(C)C(=O)O)cc(C(=O)c4ccccc4O)cn3c(=O)c2c1C (stereo not given) | inconclusive: 44.7 µM [inhibitor, partial curve] | –
O=C(CNC(=O)c1nc[nH]c1C(=O)NCC(=O)OCc1ccccc1)OCc1ccccc1 | inconclusive: 89.1 µM [inhibitor, single point] | –
Cc1ccc(NC(=O)CSc2nc3ccccc3c(=O)n2CCCN2CCCCC2)cc1Cl | inconclusive: 44.7 µM [inhibitor, partial curve] | –
O=C(COc1ccc2c3c(c(=O)oc2c1)CCC3)N1CCCCC1 | inactive | –
Cc1ccc(CCNC(=O)C23C[C@H]4C[C@@H](C2)CC(n2nnc(C)n2)(C4)C3)cc1 | inactive | –
Cc1ccc(S(=O)(=O)N2CCN(C(=O)c3ccc(N4CCCC4)c([N+](=O)[O-])c3)CC2)cc1 | inconclusive: 22.4 µM [inhibitor, full curve] | –
Cn1cc(Br)c(C(=O)N/N=C/c2cc3c(cc2Cl)OCO3)n1 | inactive | –
Cc1ccc(SCC(=O)Nc2ccc3oc(-c4cccc(Cl)c4)nc3c2)cc1 | inactive | –
c1ccc2c(c1)N1CCCN=C1N2CCN1CCCCC1 | inactive | –
FC(F)(F)c1ccccc1/C=N/n1c(C2CCCCC2)n[nH]c1=S | inactive | –
COc1cccc(-c2nnc(NC(=O)C(C)C)o2)c1 | active: 79.4 µM | –
CC(C)CC(c1nnnn1CC1CCCO1)N1CCN(C2CCCC2)CC1 (stereo not given) | inconclusive: 89.1 µM [inhibitor, single point] | –
CCCS(=O)(=O)c1c(S(=O)(=O)CCC)c2c(N)cccn2c1C(=O)c1ccc(OC)cc1 | inconclusive: 79.4 µM [inhibitor, partial curve] | –
CC[C@@H]1Cc2cc(O)ccc2C2=C1c1ccc(O)cc1C[C@H]2CC | inconclusive: 39.8 µM [inhibitor, full curve] | –
COc1cccc(C(=O)N2CCN(C(=O)Cc3ccccc3)CC2)c1 | inactive | –
Cn1c(/C=C/N(Cc2ccccc2)c2ccccc2)c([N+](=O)[O-])c(=O)n(C)c1=O | inconclusive: 28.2 µM [inhibitor, full curve, poor fit] | –
O=C(Nc1cc2c(cc1C(=O)c1ccccc1Br)OCCO2)c1cccc(Cl)c1 | inactive | –
CCc1ccccc1Nc1nc(N)nc(CSCC(=O)c2cc(C)n(C)c2C)n1 | active: 56.2 µM | –
O=C(NC1CCCC1)C1CCN(C(=O)NCc2ccccc2)CC1 | inactive | –
O=C1NC(=S)/C(=C\c2ccc(-c3ccccc3Cl)o2)S1 | active: 17.8 µM | –
COc1cccc(N2CCN(C(=O)CN3CCSc4ccccc43)CC2)c1 | inconclusive: 39.8 µM [inhibitor, partial curve] | –
Cc1[nH]c2ccccc2c1C(=O)CN1C(=O)NC(C)(c2ccc(Cl)cc2Cl)C1=O (stereo not given) | inactive | –

SMILES | Potency | activity change, negative = inhibition
Cc1cc(C)nc(SCC(=O)NN)n1 | active: 50.1 µM | –
COc1ccc(CCC(=O)Nc2cc([N+](=O)[O-])ccc2OC)cc1 | inactive | –
CCc1ccc(NS(=O)(=O)c2[nH]ncc2C(=O)OC)cc1 | inconclusive: 89.1 µM [inhibitor, single point] | –
COc1ccc(C(C)(C)C)cc1NC(=O)CNc1cccc2ccccc12 | inconclusive: 31.6 µM [inhibitor, full curve] | –
COc1ccc(Cn2c(C(=O)O)c(CNCc3ccc(SC)cc3)c3ccc(OC)cc32)cc1 | inconclusive: 39.8 µM [inhibitor, partial curve] | –
COC(=O)c1scc(C)c1NC(=O)Nc1ccccc1 | inactive | –
Cc1nc2ncccn2c1-c1csc(NCc2ccco2)n1 | inconclusive: 79.4 µM [inhibitor, single point] | –
Cc1ccc2nc(NC(=O)CSc3nccn3Cc3ccc(F)cc3)sc2c1 | inconclusive: 44.7 µM [inhibitor, partial curve] | –
CCN(CC)S(=O)(=O)c1ccc(OC(C)C)c(NC(=O)c2c3c(nc4ccccc24)CCN(Cc2ccccc2)C3)c1 | inactive | –
Cc1ccccc1NC(=S)C1=C(O)c2sccc2N(C)S1(=O)=O | inconclusive: 89.1 µM [inhibitor, single point] | –
CCc1ccc(S(=O)(=O)NC2CCCCNC2=O)cc1 (stereo not given) | inactive | –
O=C1NCCCC1C(=O)NCCN1C(=O)CCC1=O (stereo not given) | – | inconclusive: -44.7% [inhibitor]
COc1ccccc1NC(=O)NC1(C)CCS(=O)(=O)C1 (stereo not given) | inactive | –
S=c1[nH]nc(COc2ccccc2)n1/N=C/c1c(Cl)cccc1Cl | inactive | –
O=C(Cc1ccsc1)Nc1ccccc1F | inactive | –
O=C(c1cc2cc(Cl)ccc2[nH]1)N1CCN(Cc2ccc3c(c2)OCO3)CC1 | inconclusive: 12.6 µM [inhibitor, full curve] | –
Cc1ccccc1CSc1nccn1-c1ccccc1 | active: 35.5 µM | –
Cc1ccc(-n2c(N)c(-c3nc4ccccc4n3C)sc2=S)cc1 | inconclusive: 25.1 µM [inhibitor, full curve, poor fit] | –
N=C1/C(=C/c2cccs2)C(=O)N=C2SN=C(SCc3ccccc3)N12 | inconclusive: 89.1 µM [inhibitor, single point] | –
Cc1ccc(CN2CCCn3nc(C(=O)NCCc4ccccc4Cl)cc3C2=O)cc1 | inactive | –
O=C1CC(c2ccccc2)n2nc(NS(=O)(=O)c3ccccc3)nc2N1 (stereo not given) | inconclusive: 89.1 µM [inhibitor, single point] | –
COc1ccc(CCNCc2ccc3c(c2)n(C)c(=O)n3C)cc1OC | inconclusive: 89.1 µM [inhibitor, single point] | –
CC(C)(CO)NC(=O)c1ccc2c(c1)C(=O)c1ccccc1-2 | inactive | –
COc1cc(/C=c2\s/c(=C\C(=O)C(C)(C)C)[nH]c2=O)cc(OC)c1OC | inconclusive: 79.4 µM [inhibitor, single point] | –
COc1ccc(C2NC(=O)C(C#N)=C(S)N2c2ccccc2)cc1OC (stereo not given) | inactive | –
